The full ranking holds about 33,000 sequences; the median of “E-score (-0.5 to 0.5)” is about -0.035, and the highest 2% start at about 0.35. The list shows a part of the results.
molecular target: T1, Pdr3 (UniProt P33200); assay: PBM E-score (8-mer binding enrichment) (E-score (-0.5 to 0.5)); higher = stronger / more preferred TF binding; most listed sequences are background and not binding sites; conditions: protein concentration: 200 nM; construct: GST-full length
T1 sequence: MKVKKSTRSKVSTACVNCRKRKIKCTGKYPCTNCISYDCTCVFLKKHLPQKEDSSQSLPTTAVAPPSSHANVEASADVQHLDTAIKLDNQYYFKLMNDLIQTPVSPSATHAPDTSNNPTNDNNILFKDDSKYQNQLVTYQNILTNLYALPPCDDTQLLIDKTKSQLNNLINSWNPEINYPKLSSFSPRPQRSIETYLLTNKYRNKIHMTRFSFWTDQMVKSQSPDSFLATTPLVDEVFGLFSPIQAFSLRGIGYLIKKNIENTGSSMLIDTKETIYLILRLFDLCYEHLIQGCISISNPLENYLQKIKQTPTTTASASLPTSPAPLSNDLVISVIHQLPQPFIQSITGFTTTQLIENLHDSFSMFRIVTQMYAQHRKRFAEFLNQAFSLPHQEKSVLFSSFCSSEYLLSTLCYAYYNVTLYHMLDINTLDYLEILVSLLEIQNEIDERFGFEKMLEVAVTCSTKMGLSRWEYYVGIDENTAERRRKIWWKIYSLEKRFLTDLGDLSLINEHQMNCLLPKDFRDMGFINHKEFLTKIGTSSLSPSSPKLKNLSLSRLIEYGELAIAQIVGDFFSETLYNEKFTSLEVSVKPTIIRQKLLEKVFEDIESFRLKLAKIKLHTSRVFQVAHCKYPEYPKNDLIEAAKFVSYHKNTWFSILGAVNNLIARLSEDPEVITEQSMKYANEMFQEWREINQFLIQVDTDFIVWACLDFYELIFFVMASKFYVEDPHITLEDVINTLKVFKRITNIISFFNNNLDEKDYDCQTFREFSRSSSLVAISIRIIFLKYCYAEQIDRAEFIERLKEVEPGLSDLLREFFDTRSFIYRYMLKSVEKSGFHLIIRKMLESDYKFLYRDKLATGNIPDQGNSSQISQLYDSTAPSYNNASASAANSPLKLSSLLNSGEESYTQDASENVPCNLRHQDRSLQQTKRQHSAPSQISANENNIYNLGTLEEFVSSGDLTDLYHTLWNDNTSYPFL
Summary of the method: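 Detection of bound protein used fluorescent anti-GST, with scans normalised by masliner. The proteins were GST-tagged yeast transcription factors applied at about 100-200 nM to universal all-10-mer Agilent arrays made double-stranded by primer extension. Each ungapped eight-base word, pooled with its reverse complement, was scored with an E-score from the Universal PBM Analysis Suite.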

Sequence	PBM E-score
CCCTCGTA	-0.0134
CGCCCGGC	0.293
AGGGCGTG	-0.0787
GGAACCGA	0.406
GAAATCGA	0.18
CCCTTCGA	-0.0988
GAGGTTGC	-0.0384
AGAACTCC	0.0347
GTGGGGTA	0.21
ACTCGTTG	-0.242
TGTTCGAA	-0.0866
AACATGAA	-0.113
CTCGTTTC	-0.109
CGAGGCAC	-0.0225
CCGTAATA	0.107
CGAGAGAA	-0.0217
GGAATTAC	0.224
CGCTCTCA	-0.094
AATAGGAT	0.0785
TACGTTGA	-0.214
AGAATCCT	-0.142
TAGTGTCA	0.0536

Sequence	PBM E-score
AGCTTCAA	-0.258
TCCCGGAA	0.463
AAGACAGC	-0.129
ATTTTAAC	-0.101
ATTCACCC	0.182
AACCCCCT	-0.347
CGTTATCA	-0.0262
CTTATGAA	-0.132
TACAGTAA	-0.301
GTTCGAAA	0.102
AAGTTTTA	-0.0119
ATAGGTTC	-0.0357
AAGCAATC	-0.0187
AAAGTAGC	-0.0793
ACTCTGTA	-0.165
ATTACATG	0.027
ATGACGGG	0.213
CATGGAAG	0.203
ATGACTAA	-0.214
CCTGGGGA	-0.292
CGGTGTGA	0.165
GAATGCGC	0.231

Sequence	PBM E-score
GTAGACAC	-0.0101
ACCGATGC	0.045
CAAGAGCG	-0.0589
CATTCAGG	-0.0624
AATGTGGA	0.00947
AGAGCGGC	0.168
ATATGATC	0.118
ATTGCCAA	-0.0932
GTGAAGCA	-0.0976
GCCAAAGA	-0.148
ACAGGCAA	-0.104
CATAGGGC	-0.118
GACGGGTA	0.0374
CCGGGGCA	0.235
CCATTCAC	0.014
AAAACCCT	-0.252
AGCCCCAT	-0.0914
CCATGGGA	0.0759
CATGAGAA	-0.0502
CCTGGGTA	-0.239
CTTCCGTC	0.403
ACCGTATG	-0.0796

Sequence	PBM E-score
ACCAAGAT	-0.0515
AGTGAAGG	-0.221
CCACCAAA	-0.116
CCATCTAG	-0.223
CGTTTACA	-0.141
GATACTGA	0.0486
GCTGCTAC	-0.212
CCCATTAC	-0.138
GGGCCGAC	0.0222
ACTCGGCG	0.248
CTTGCTAA	-0.266
CACACCGA	0.0166
GGTTGACA	-0.0746
ACATAACT	-0.0475
CAGGTAAA	-0.0305
ACCAACCA	-0.0183
CAGGGACC	-0.246
CGTCGTTC	0.196
CATGCGAG	-0.0214
GCTGAGCC	0.00413

Reference: the supplement of paper PMC3334620
